Laboratory results taken from the RNAGym collection of RNA variant scans (doi:10.1093/nar/gkz1192).
Read counts are not given, so values of variants with three or more changes are uncertain.

B1: CPEB3 Ribozyme (parent)
chain: UAACAGGGGGCCACAGCAGAAGCGUUCACGUCGCAGCCCCUGUCAGAUUCUGGUGAAUCUGCGAAUUCUGCUGUAUAUCUC

Variants of: B1
Assay: self-cleavage, relative activity (ratio to wild type); higher = more cleavage; in vitro, sequencing
Procedure, shortened: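 Barcoded CPEB3 ribozyme mutants, produced by rounds of error-prone PCR, self-cleaved while being transcribed with T7 RNA polymerase for 5 hours at 37°C and during a subsequent 15 min DNase I step before EDTA was added. Sequencing of template-switched cDNA on Illumina gave cleaved and total reads, and DNA sequencing assigned barcodes to variants. Each variant's relative activity is its cleaved/total read fraction divided by the unmutated ribozyme's fraction, averaged across three batches. A variant needed a minimum of 5 reads.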
UAACAGGGGGCCACAGCAGAAGCGUUCACGUCGCAGCCCCGGUCAGAUUCUGGUGAAUCUGCGAGUUCUGCAGUAUAUCUC [U41G A65G U72A] showed a self-cleavage of 0.15.
With UAACAGGGGGCCACAGCAGAAGCGUUCACGUCGCAGCCCCGGUCAGGUUCUGGCGAAUCUGCGAAUUCUGCUGUAUAUCUC [U41G A47G U54C] the self-cleavage was 0.15.
UAACAGGGGGCCACAGCAGAAGCGUUCACGUCGCAGCCCCCGUCAGAUUCUGGUGAAUCUGCGAAUUCCACUGUAUGUCUC [U41C U69C G70A A77G] gave a self-cleavage of 0.19.
Work on UAACAGGGGGCCACAGCAGAAGCGUUCACGUCGCAGCCCCCGUCAGAUUCUGGUGAAUCAGCGAAUUCUGCUGUUUAUCUC [U41C U60A A75U] yielded a self-cleavage of 0.62.
With UAACAGGGGGCCACAGCAGAAGCGUUCACGUCGCAGCCCCCGUCAGAUUCUGGAGAAUCUGCGAAUUCUGCUGGAUAUCUC [U41C U54A U74G] the self-cleavage was 1.35.
Work on UAACAGGGGGCCACAGCAGAAGCGUUCACGUCGCAGCCCCCGUCAGAUUCUGGUGAAUCUGCGAAUUCUGCUGUAUACCAC [U41C U78C U80A] yielded a self-cleavage of 0.98.
Work on UAACAGGGGGCCACAGCAGAAGCGUUCACGUCGCAGCCCCCGUCAGAUUCUGGUGAAUCUGCGAAUUCUGCUGUAAACCUC [U41C U76A U78C] yielded a self-cleavage of 1.17.
For UAACAGGGGGCCACAGCAGAAGCGUUCACGUCGCAGCCCCGGUCAGACUCUGGUGAAUCUGCGAAAUCUGCAGUAUAUCCC [U41G U48C U66A U72A U80C], the self-cleavage was 0.31.
Variant UAACAGGGGGCCACAGCAGAAGCGUUCACGUCGCAGCCCCCGUCAGAUUCUGGCGAAUCUGCGAAUUCUGCGGUAUAUCUC [U41C U54C U72G] has a self-cleavage of 1.1.
UAACAGGGGGCCACAGCAGAAGCGUUCACGUCGCAGCCCCCGUCAGAUUCUGGUGAAUCCCCGAAUUCUGCUGUAUAUCAC [U41C U60C G61C U80A] gave a self-cleavage of 0.23.
For UAACAGGGGGCCACAGCAGAAGCGUUCACGUCGCAGCCCCGGUCAGAUUCUGGUGAAUCCGCGAAUUCUGCUGUAUAUCCC [U41G U60C U80C], the self-cleavage was 0.21.
Work on UAACAGGGGGCCACAGCAGAAGCGUUCACGUCGCAGCCCCCGUCAGAUUCUGGUGAAUCCGCGAACUCUGCUGUAUACCUC [U41C U60C U66C U78C] yielded a self-cleavage of 0.18.
UAACAGGGGGCCACAGCAGAAGCGUUCACGUCGCAGCCCCCGUCAGAUUCUGGUGAAUCCGCGAAUUCAGCAGUAUAUCCC [U41C U60C U69A U72A U80C] gave a self-cleavage of 0.25.
In the case of UAACAGGGGGCCACAGCAGAAGCGUUCACGUCGCAGCCCCGGUCGGAUUCAGAUGAAUCUGCGUAUUCUGCUGUAUACCUC [U41G A45G U51A G53A A64U U78C], the self-cleavage is reported as 0.11.
Variant UAACAGGGGGCCACAGCAGAAGCGUUCACGUCGCAGCCCCGGUCAGAUGCUGGUGAAUCUGAGAAUUCAGCUGUAUACCUC [U41G U49G C62A U69A U78C] has a self-cleavage of 0.05.
UAACAGGGGGCCACAGCAGAAGCGUUCACGUCGCAGCCCCGGUGAGAUUCUGGUGGAUCUGCAAUUCCUGCUGUAUAUCUC [U41G C44G A56G G63A A65U U67C] gave a self-cleavage of 0.35.
Variant UAACAGGGGGCCACAGCAGAAGCGUUCACGUCGCAGCCCCCGUCAGAUUCUGGUGAACCUGCGAAUUCAGCUGUAUCUCUC [U41C U58C U69A A77C] has a self-cleavage of 0.28.
UAACAGGGGGCCACAGCAGAAGCGUUCACGUCGCAGCCCCCGUCAGAUUCUGGUGAAUCUGCGAAUCCUGCUGUAUAACUC [U41C U67C U78A] showed a self-cleavage of 0.3.
In the case of UAACAGGGGGCCACAGCAGAAGCGUUCACGUCGCAGCCCCCGUCAGAUUCUGGUGAAUCUGCGAAUCCUGCUGUAUACCUC [U41C U67C U78C], the self-cleavage is reported as 0.21.
UAACAGGGGGCCACAGCAGAAGCGUUCACGUCGCAGCCCCCGUCAGAUUCUGGUGAAUCAGCGAGUUCUGCUGUAUAUCUC [U41C U60A A65G] showed a self-cleavage of 0.12.
In the case of UAACAGGGGGCCACAGCAGAAGCGUUCACGUCGCAGCCCCGGUCAGAUUCCGGCGAAUCUGCGAAUUCUGCUGUAUAUCUC [U41G U51C U54C], the self-cleavage is reported as 0.15.
UAACAGGGGGCCACAGCAGAAGCGUUCACGUCGCAGCCCCGGUCAGAUCCUGGCGAAUCUGCGAAUCCUGCUGUAUAUCUC [U41G U49C U54C U67C] gave a self-cleavage of 0.2.
In the case of UAACAGGGGGCCACAGCAGAAGCGUUCACGUCGCAGCCCCCGUCAGAUUCUGGGGAGUCUGCGAAUUCUGCUGUAUAUCAC [U41C U54G A57G U80A], the self-cleavage is reported as 0.65.
UAACAGGGGGCCACAGCAGAAGCGUUCACGUCGCAGCCCCGGUCAGAUUUUGGUGAAUCUGCGAAUACUGCUGUAUAUCUC [U41G C50U U67A] gave a self-cleavage of 0.26.
For UAACAGGGGGCCACAGCAGAAGCGUUCACGUCGCAGCCCCGGUCAGAUUCCGGCGAAUCUGCGAAUUCUGCCGUGUAUCUC [U41G U51C U54C U72C A75G], the self-cleavage was 0.17.
Variant UAACAGGGGGCCACAGCAGAAGCGUUCACGUCGCAGCCCCCGUCAGAUUCUGGCGAAUCUGCGAACUCUGCUGUAUAUCUC [U41C U54C U66C] has a self-cleavage of 0.42.
With UAACAGGGGGCCACAGCAGAAGCGUUCACGUCGCAGCCCCCGUCAGAUUCUGGAGUAUCUGCGAAUCCUGCUGUAUAUCUC [U41C U54A A56U U67C] the self-cleavage was 0.47.
With UAACAGGGGGCCACAGCAGAAGCGUUCACGUCGCAGCCCCCGUCAGAUUCUGGUGAAUCUGCGAAUUCCGCUGUAUAUUUC [U41C U69C C79U] the self-cleavage was 0.79.
In the case of UAACAGGGGGCCACAGCAGAAGCGUUCACGUCGCAGCCCCCGUCAGAUUCUGGUGAAUCUGCGAAUUCCGCAGUAUAUCCC [U41C U69C U72A U80C], the self-cleavage is reported as 0.23.
UAACAGGGGGCCACAGCAGAAGCGUUCACGUCGCAGCCCCGGUCAGAUUCUGGUGAAUCUGCGAUUUCUGCUGUAUAUCUU [U41G A65U C81U] showed a self-cleavage of 0.21.
Variant UAACAGGGGGCCACAGCAGAAGCGUUCACGUCGCAGCCCCCGUCAGAUUCUGGCGAAUCUACGAACUCUGCUGUAUAUCUC [U41C U54C G61A U66C] has a self-cleavage of 0.28.
Work on UAACAGGGGGCCACAGCAGAAGCGUUCACGUCGCAGCCCCCGUCAGAUUCUGGUGAAUCCGCGGAUUCUGCUGUAUAUCCC [U41C U60C A64G U80C] yielded a self-cleavage of 0.46.
Work on UAACAGGGGGCCACAGCAGAAGCGUUCACGUCGCAGCCCCGGUCAGAUUCUGGCGAAUCAGCGAAUUCCGCCGUAUAUCUC [U41G U54C U60A U69C U72C] yielded a self-cleavage of 0.19.
With UAACAGGGGGCCACAGCAGAAGCGUUCACGUCGCAGCCCCGGUCAGAUUCUGGUGAAUCAGCGGAUCCUGCUGUAUAUCUC [U41G U60A A64G U67C] the self-cleavage was 0.14.
